Reference: US20060141460A1, “Assays for fprl-1 ligands” (AstraZeneca A B, priority 2002, published 2006)

What was measured:
CCR1 receptor = molecular target: T1, CCR1 receptor (UniProt P32246); experiment: cell-based or functional assay
T1 sequence (looked up): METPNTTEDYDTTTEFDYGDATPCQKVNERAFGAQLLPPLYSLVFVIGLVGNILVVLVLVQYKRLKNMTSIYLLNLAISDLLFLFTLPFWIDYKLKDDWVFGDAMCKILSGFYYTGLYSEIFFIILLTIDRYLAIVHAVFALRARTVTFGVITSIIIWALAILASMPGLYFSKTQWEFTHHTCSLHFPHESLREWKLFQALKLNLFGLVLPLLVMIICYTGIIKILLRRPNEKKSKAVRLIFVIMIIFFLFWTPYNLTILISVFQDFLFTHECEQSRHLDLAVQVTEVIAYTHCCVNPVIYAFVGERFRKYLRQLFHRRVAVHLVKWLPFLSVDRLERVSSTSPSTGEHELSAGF

[1] = molecular target: human formyl peptide receptor-like-1 (FPRL-1) receptor (human) (UniProt P25090); experiment: cell-based or functional assay
FPRL-1 = molecular target: T2, FPRL-1 (Homo sapiens, UniProt P25090); experiment: FLIPR intracellular calcium mobilization in HEK-293s or CHO cells expressing FPRL-1; type: cell-based; conditions: for Emax: HEK-293s transiently expressing hFPRL-1 in Gα16 background
T2 sequence (P25090 1-351): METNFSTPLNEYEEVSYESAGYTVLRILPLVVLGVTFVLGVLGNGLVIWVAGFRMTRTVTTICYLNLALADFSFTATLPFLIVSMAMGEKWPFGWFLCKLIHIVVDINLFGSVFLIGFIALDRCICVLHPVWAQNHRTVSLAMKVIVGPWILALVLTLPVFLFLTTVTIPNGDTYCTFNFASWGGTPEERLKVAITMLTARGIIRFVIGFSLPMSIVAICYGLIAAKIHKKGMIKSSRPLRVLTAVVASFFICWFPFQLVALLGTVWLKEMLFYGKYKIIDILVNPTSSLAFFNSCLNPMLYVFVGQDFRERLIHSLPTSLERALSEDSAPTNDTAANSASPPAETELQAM
Method: A stable receptor pool of FPRL-1 was developed by applying an antibiotic selection (G418, 1 mg/ml) and the cells were maintained in this selection medium.
A functional assay was performed with FLIPR (Fluorescent Imaging Plate Reader, Molecular Devices, Sunnyvale, Calif.) using the fluorescent calcium indicator Fluo-3 (Molecular Probes, Inc., Eugene, Oreg.) on a 96-well platform. […] On the day of the experiment, the FPRL-1-transfected cells were loaded with fluorescent solution (Dulbecco's modified medium containing 4 μM Fluo-3 and 20% pluronic acid). The cells were incubated at 37° C. for one hour in a humidified chamber. Following the incubation step, cells were washed five times in Hanks' with 20 mM Hepes and 0.1% BSA (pH 7.4). The cells were analyzed using the FLIPR system to measure the mobilization of intracellular calcium in response to different compounds.
Cell lines transiently expressing human FPRL-1 were stimulated with compounds, and calcium responses were compared to parental cells.

CCR1 = molecular target: T3, CCR1 (Homo sapiens, UniProt P32246); experiment: [Ca2+]i release in HEK-293s cells stably expressing CCR1; type: cell-based; conditions: CCR1 stably expressed in HEK-293s cells; mean±s.e. mean
T3 construct: expressed in transfected cells
T3 sequence (P32246 1-355): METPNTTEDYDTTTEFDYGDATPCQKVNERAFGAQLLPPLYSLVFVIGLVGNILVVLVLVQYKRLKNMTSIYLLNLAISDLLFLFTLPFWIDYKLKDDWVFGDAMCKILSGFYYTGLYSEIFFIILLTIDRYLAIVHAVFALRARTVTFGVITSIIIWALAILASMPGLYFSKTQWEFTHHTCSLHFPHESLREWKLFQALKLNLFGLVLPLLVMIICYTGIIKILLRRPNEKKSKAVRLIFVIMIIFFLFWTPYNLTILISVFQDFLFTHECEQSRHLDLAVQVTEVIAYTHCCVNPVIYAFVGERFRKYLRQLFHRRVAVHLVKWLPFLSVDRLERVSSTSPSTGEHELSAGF

[2] = molecular target: human formyl peptide receptor-like-1 (FPRL-1) receptor (human) (UniProt P25090); experiment: cell-based or functional assay; remark: listed apart in the source
[3] = HEK-293s cells co-expressing Gα16 and FPRL-1, mean±s.e. mean

recombinant human CKβ8-1 (aa46-137) (from UniProt P55773 46-137) (ligand)
pEC50 (n = 4), [Ca2+]i release in HEK-293s cells stably expressing CCR1 (-log of the EC50) (CCR1 receptor): 8.14 | EC50, intracellular calcium mobilization (FLIPR), HEK-293s cells stably expressing hFPRL-1 in Gα16 background, n = 1 [1]: 6.55 nM | EC50, intracellular calcium mobilization (FLIPR), HEK-293s cells stably expressing hFPRL-1 in Gα16 background, n = 2 [1]: 0.52 nM | Emax, intracellular calcium mobilization (FLIPR), HEK-293s cells stably expressing hFPRL-1 in Gα16 background, n = 1 [1]: 12100 RFU | Emax, intracellular calcium mobilization (FLIPR), HEK-293s cells stably expressing hFPRL-1 in Gα16 background, n = 2 [1]: 21300 RFU | Emax, intracellular calcium mobilization (FLIPR), HEK-293s transiently expressing hFPRL-1 in Gα16 background, n = 1 [1]: 8480 RFU | Emax, intracellular calcium mobilization (FLIPR), HEK-293s transiently expressing hFPRL-1 in Gα16 background, n = 2 [1]: 6330 RFU | Intracellular Ca2+ mobilization pEC50 (n = 3), HEK-293s cells (-log of the EC50) [1]: 8.85

RANTES (from UniProt P13501 24-91) (ligand)
pEC50 (n = 4), [Ca2+]i release in HEK-293s cells stably expressing CCR1 (-log of the EC50) (CCR1 receptor): 9.57

CKβ8 (aa46-120) (from UniProt P55773 46-120) (ligand)
pEC50 (n = 4), [Ca2+]i release in HEK-293s cells stably expressing CCR1 (-log of the EC50) (CCR1 receptor): 8.88

CSCC[C@H](NC(=O)[C@@H](NC(=O)[C@H](CCSC)NC(=O)[C@H](Cc1ccc(O)cc1)NC(=O)[C@H](CCCCN)NC(=O)[C@@H](N)Cc1c[nH]c2ccccc12)C(C)C)C(N)=O [W-peptide]
Emax (FPRL-1; n = 1): 13252 RFU | Emax (FPRL-1; n = 2): 13326 RFU

CKβ8 (aa22-120) (from UniProt P55773 22-120) (ligand)
pEC50 (n = 4), [Ca2+]i release in HEK-293s cells stably expressing CCR1 (-log of the EC50) (CCR1 receptor): 8.42

SHAAG peptide
Intracellular Ca2+ mobilization pEC50 (n = 3), HEK-293s cells (-log of the EC50) [1]: 7.15

CCCCC[C@H](O)/C=C/C=C\C=C\C=C\[C@@H](O)[C@@H](O)CCCC(=O)O [Lipoxin A4 (LXA4), Lipoxin A4]
Intracellular Ca2+ mobilization pEC50 (n = 3) (FPRL-1; [3]): <6.0 | pEC50 at FPRL-1 (FPRL-1; calcium mobilization, CHO and HEK-293s cells co-expressing Gα16 and FPRL-1): < 6

LWRRKIGPQMTLSHAAG [SHAAG peptide]
EC50 (FPRL-1; Intracellular Ca2+ mobilization pEC50 (n = 3), HEK-293s cells co-expressing Gα16 and FPRL-1, mean±s.e. mean): 70.8 nM

CKβ8-1 (aa22-137) (from UniProt P55773 22-137) (ligand)
pEC50 (n = 4), [Ca2+]i release in HEK-293s cells stably expressing CCR1 (-log of the EC50) (CCR1 receptor): 7.42 | Intracellular Ca2+ mobilization pEC50 (n = 3), HEK-293s cells (-log of the EC50) [1]: < 5.7

RANTES: a CCR1 agonist
pEC50 (n = 4) (CCR1): 9.57±0.06

B1: Serum Amyloid A protein (SAA) (ligand, UniProt P0DJI8 19-122, looked up, species assumed)
Serum amyloid A-1 protein: RSFFSFLGEAFDGARDMWRAYSDMREANYIGSDKYFHARGNYDAAKRGPGGAWAAEVITDARENIQRFFGHGAEDSLADQAANEWGRSGKDPNHFRPAGLPEKY
Intracellular Ca2+ mobilization pEC50 (n = 3) (FPRL-1; [3]): <6.0 | Intracellular Ca2+ mobilization pEC50 (n = 3), HEK-293s cells (-log of the EC50) [2]: < 6

Where two headings read alike, the source gives them in different places. Where no end group is shown, it is not given here.
